We go through 27 compounds from the antibiotic and cytotoxicity screens of Wong et al. (2023).

For one test, the system named is HSkMC. The test is described as follows: cytotoxicity call (relative viability < 0.9). Particulars: 10 µM.
The next test has as its system HepG2. Description: cytotoxicity call (relative viability < 0.9). Particulars: 10 µM.
A further test has as its system S. aureus RN4220. The test is described as follows: growth inhibition call (relative growth <= 0.2). As to conditions: 50 µM.

The other results are listed elsewhere or left out.

For the compound `O=C1c2ccccc2[C@@]2(Cc3ccccc3N(CC(F)(F)F)C2=O)[C@H](c2ccc(CO)cc2)N1Cc1ccccc1`, the cytotoxicity call in the test with HSkMC and with HepG2 was “inactive” in each case. In the test on S. aureus RN4220, the growth inhibition call was “inactive”.
Consider `COCCC(=O)N1C[C@H]2CN(c3cnn(C)c3)C(=O)[C@@H]2C1`, for which the cytotoxicity call in the test with HSkMC and in the test on HepG2 was “inactive” each time. Besides, in the test with S. aureus RN4220, the growth inhibition call is “inactive”.
As for `Cc1noc(C)c1NC(=O)N(C)C[C@H]1Oc2c(NC(=O)c3cnccn3)cccc2C(=O)N([C@H](C)CO)C[C@H]1C`, the cytotoxicity call with HSkMC and in the test on HepG2 was “inactive” in each case. Moreover, the growth inhibition call in the test with S. aureus RN4220 is “inactive”.
`CC(C)CC#Cc1ccc2c(c1)O[C@@H](CN(C)C(=O)c1cnccn1)[C@H](C)CN([C@@H](C)CO)S2(=O)=O`: the cytotoxicity call in the test with HSkMC and with HepG2 was “inactive” in each case. Also, the growth inhibition call in the test on S. aureus RN4220 was “inactive”.
With `CCCCOc1ccc(CC(=O)NO)cc1`, the cytotoxicity call with HSkMC is “inactive”. Further, the cytotoxicity call in the test on HepG2 is “active”. Further, the growth inhibition call in the test on S. aureus RN4220 is “inactive”.
As to `Cc1noc(C)c1NC(=O)Nc1ccc2c(c1)C(=O)N([C@@H](C)CO)C[C@H](C)[C@@H](CN(C)C(=O)Nc1ccc(F)cc1)OCCCC[C@@H](C)O2`, the cytotoxicity call in the test on HSkMC and in the test with HepG2 was “inactive” throughout. In addition, the growth inhibition call in the test with S. aureus RN4220 was “inactive”.
As to `O=C(C[C@@H]1C=C[C@@H](NS(=O)(=O)c2ccccc2F)[C@@H](CO)O1)NCCCN1CCOCC1`, the cytotoxicity call with HSkMC and in the test on HepG2 was “inactive” each time. Moreover, the growth inhibition call in the test with S. aureus RN4220 is “inactive”.
In the case of `COc1ccc(CN(C)C[C@H]2OCCCC[C@@H](C)Oc3ccc(NC(=O)NC4CCCCC4)cc3C(=O)N([C@H](C)CO)C[C@@H]2C)cc1`, the cytotoxicity call with HSkMC and in the test on HepG2 was “inactive” in each case. Besides, the growth inhibition call in the test with S. aureus RN4220 was “inactive”.
In the case of `C[C@@H]1CN([C@H](C)CO)C(=O)c2c(c3ccccc3n2C)-c2ccccc2CO[C@@H]1CN(C)C(=O)CCC(F)(F)F`, the cytotoxicity call in the test with HSkMC and with HepG2 was “inactive” each time. The growth inhibition call with S. aureus RN4220 is “inactive”.
Regarding `Cc1ccc(S(=O)(=O)N(C)C[C@@H]2Oc3ccc(N(C)C)cc3CC(=O)N([C@H](C)CO)C[C@H]2C)cc1`, the cytotoxicity call in the test with HSkMC and with HepG2 was “inactive” in each case. In addition, the growth inhibition call with S. aureus RN4220 is “inactive”.
For the compound `Nc1nc(=S)c2ncn([C@@H]3O[C@H](CO)[C@@H](O)[C@H]3O)c2[nH]1`, the cytotoxicity call with HSkMC is “inactive”. Moreover, in the test with HepG2, the cytotoxicity call is “active”. Also, the growth inhibition call in the test on S. aureus RN4220 was “inactive”.
With `O=c1[nH]c2c(=O)nc[nH]c2nc1-c1ccccc1`, the cytotoxicity call in the test with HSkMC and with HepG2 was “inactive” each time. The growth inhibition call with S. aureus RN4220 is “inactive”.
In the case of `C[C@H](CO)N1C[C@H](C)[C@@H](CN(C)Cc2ccc(C(=O)Nc3ccccc3N)cc2)Oc2c(NC(=O)c3ccc(-c4nccs4)cc3)cccc2C1=O`, the cytotoxicity call in the test with HSkMC and in the test with HepG2 was “inactive” throughout. The growth inhibition call in the test on S. aureus RN4220 was “inactive”.
With `CC1C=CC=CC=CC=CC=CC=CC=CC(OC2OC(C)C(O)C(N)C2O)CC2OC(O)(CC(O)CC(O)C(O)CCC(O)CC(O)CC(=O)OC(C)C(C)C1O)CC(O)C2C(=O)O` (stereo unspecified), the cytotoxicity call in the test on HSkMC and in the test with HepG2 was “inactive” in each case. Further, the growth inhibition call in the test on S. aureus RN4220 was “inactive”.
As to `O=c1nc[nH]c2ccccc12`, the cytotoxicity call in the test on HSkMC and in the test with HepG2 was “inactive” in each case. In the test with S. aureus RN4220, the growth inhibition call was “inactive”.
On to `CC1CCC2(C(=O)O)CCC3(C)C(=CCC4C5(C)CC(O)C(O)C(C)(CO)C5C(O)CC43C)C2C1C` (stereo unspecified), for which the cytotoxicity call in the test on HSkMC and with HepG2 was “inactive” each time. Further, in the test with S. aureus RN4220, the growth inhibition call is “inactive”.
Consider `COc1ccc(S(=O)(=O)N(C)C[C@H]2Oc3c(NC(=O)C4CC4)cccc3C(=O)N([C@@H](C)CO)C[C@@H]2C)cc1`, for which the cytotoxicity call with HSkMC and with HepG2 was “inactive” throughout. For the same compound, the growth inhibition call with S. aureus RN4220 was “inactive”.
`O=C(CN1CCOCC1)NCC[C@@H]1CC[C@@H](NC(=O)c2ccc3c(c2)OCO3)[C@@H](CO)O1`: the cytotoxicity call in the test on HSkMC and in the test on HepG2 was “inactive” throughout. Further, the growth inhibition call in the test with S. aureus RN4220 is “inactive”.
Regarding `CC#CC[C@@H](C)[C@H](O)/C=C/[C@@H]1[C@H]2C/C(=C/CCCC(=O)O)C[C@H]2C[C@H]1O`, the cytotoxicity call with HSkMC and in the test with HepG2 was “inactive” in each case. Also, the growth inhibition call with S. aureus RN4220 is “inactive”.
For `COc1cccc(C#Cc2ccc3c(c2)O[C@@H](CN(C)C(=O)CN2CCOCC2)[C@@H](C)CN([C@@H](C)CO)S3(=O)=O)c1`, the cytotoxicity call with HSkMC and in the test on HepG2 was “inactive” throughout. Also, in the test with S. aureus RN4220, the growth inhibition call is “inactive”.
As for `CN1CCN(C(=O)C[C@H]2CC[C@H](NC(=O)c3ccc4c(c3)OCO4)[C@@H](CO)O2)CC1`, the cytotoxicity call with HSkMC and in the test on HepG2 was “inactive” in each case. In the test with S. aureus RN4220, the growth inhibition call was “inactive”.
As for `O=C(O)[C@@H](O)[C@H](O)C(=O)O`, the cytotoxicity call in the test with HSkMC and with HepG2 was “inactive” in each case. For the same compound, in the test with S. aureus RN4220, the growth inhibition call is “inactive”.
As for `COc1ccccc1CNC(=O)C[C@H]1C[C@H]2c3cc(NC(=O)c4cccnc4)ccc3O[C@H]2[C@@H](CO)O1`, the cytotoxicity call in the test with HSkMC and with HepG2 was “inactive” each time. The growth inhibition call in the test with S. aureus RN4220 is “inactive”.
Regarding `COC(=O)Cn1c(=O)c2c(OC)c(C)cnc2n(C)c1=O`, the cytotoxicity call in the test with HSkMC and in the test with HepG2 was “inactive” each time. Moreover, in the test with S. aureus RN4220, the growth inhibition call was “inactive”.
As to `CC(=O)[C@]12O[C@@]3(COC[C@H](c4ccccc4)N3C1=O)[C@H]1C(=O)N(C)C(=O)[C@H]12`, the cytotoxicity call with HSkMC and in the test on HepG2 was “inactive” in each case. The growth inhibition call in the test with S. aureus RN4220 is “inactive”.
For the compound `C[C@@H]1CCCCO[C@H](CN(C)Cc2ccccc2)[C@@H](C)CN([C@H](C)CO)C(=O)c2cc(NC(=O)Nc3ccccc3)ccc2O1`, the cytotoxicity call in the test on HSkMC and with HepG2 was “inactive” throughout. For the same compound, the growth inhibition call with S. aureus RN4220 is “inactive”.
On to `COc1ccc(S(=O)(=O)N(C)C[C@@H]2Oc3c(NC(=O)c4ccncc4)cccc3C(=O)N([C@@H](C)CO)C[C@H]2C)cc1`, for which the cytotoxicity call in the test on HSkMC (human skeletal muscle cells) and with HepG2 was “inactive” throughout. The growth inhibition call in the test with S. aureus RN4220 is “inactive”.
